Usually AC50 stands for the concentration giving half of the maximal activity seen.

Data on 19 compounds can be found in PubChem BioAssay (NCATS).

A short description of this test: Cell-based coincidence reporter assay to measure PMP22 gene transcription in S16 Pmp22-F2sN cells - Confirmatory screen (AID 1508646). Conditions: S16 Schwann cells Pmp22-F2sN, dual luciferase, 24 h. An outline of the steps: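 S16 Schwann cells carrying a bioluminescent reporter in the Pmp22 3' UTR (Pmp22-F2sN) were treated with compounds for 24 h at 37C, then lysed; FLuc and then NLuc luminescence were read sequentially with a dual-luciferase kit on a CCD imager.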
For orientation: Reporter assays use an easily measured gene product as a stand-in for the process of interest.

[1] abbreviates: measured here: FLuc reporter channel.
The mark [2] stands for this setting: measured here: NLuc reporter channel.

This is one part of the list. The main result of the screen is listed elsewhere. These columns were measured beside it and carry no call. Compounds called inactive in the main read-out are mostly missing here. The note in brackets gives the kind of curve behind each potency; many fits are weak.
Tags tell the direction and shape of the fitted curve.

On to `CC(=O)Nc1cccc(-c2nnc(SCC(=O)c3cc([N+](=O)[O-])ccc3Br)o2)c1`, for which the AC50 reads like this: under setting [1], 17.2 µM [falling, partial curve]; under setting [2], 17.2 µM [falling, partial curve].
In the case of `CCC(Sc1nncn2c1cc1occc12)C(=O)Nc1ccc(C)c(Cl)c1` (stereo not drawn), the concentration at half-maximal activity (AC50) was 15.3 µM [falling, partial curve] under setting [1] and 27.3 µM [falling, partial curve] under setting [2].
For `Cc1ccc(CN2C(=O)C(O)(c3c(C)[nH]c4ccccc34)c3ccccc32)cc1` (stereo not drawn), the half-maximal activity concentration (AC50) under setting [1] is 17.2 µM [falling, partial curve] and the concentration at half-maximal activity (AC50) under setting [2] was 17.2 µM [falling, partial curve].
Take `COc1ccc(C)cc1NC(=O)Cn1c(=O)cc(C)c2c(C)nn(C)c21`: the AC50 was 12.2 µM [falling, full curve] under setting [1] and 15.3 µM [falling, partial curve] under setting [2].
In the case of `Cn1nnnc1SCCCNCc1ccccc1OCc1ccccc1Cl`, the AC50 is, setting by setting: under setting [1], 24.3 µM [falling, partial curve]; under setting [2], 24.3 µM [falling, partial curve].
In the case of `O=C(CCCCn1c(=O)c2ccccc2n(CC(=O)Nc2ccc(F)cc2F)c1=O)NCc1ccccc1Cl`, the concentration at half-maximal activity (AC50) reads like this: under setting [1], 15.3 µM [falling, full curve]; under setting [2], 21.7 µM [falling, partial curve, poor fit].
In the case of `O=S(=O)(c1cccc(Cl)c1)c1nnn2c1nc(NC1CCCCCC1)c1sccc12`, the AC50 is 19.3 µM [falling, partial curve, poor fit] under setting [1] and 19.3 µM [falling, partial curve, poor fit] under setting [2].
As to `O=C(NCCCN1CCN(c2cccc(Cl)c2)CC1)c1nnc(Cc2ccc(F)cc2Cl)o1`, the AC50 runs as follows: under setting [1], 24.3 µM [falling, partial curve]; under setting [2], 27.3 µM [falling, partial curve].
For the compound `Cc1ccc(NC(=O)c2ccc3c(=O)n4nc(Nc5ccccc5C)sc4nc3c2)cc1C`, the AC50 runs as follows: under setting [1], 10.9 µM [falling, full curve]; under setting [2], 15.3 µM [falling, full curve].
In the case of `Cc1ccc(Cl)cc1N1CCN(CCCNc2ncnc3onc(-c4ccc(Cl)cc4)c23)CC1`, the AC50 runs as follows: under setting [1], 12.2 µM [falling, partial curve, poor fit]; under setting [2], 3.85 µM [falling, partial curve, poor fit].
As for `CCc1ccc2ncc(C(=O)c3ccc(C)c(C)c3)c(N3CCC(C(N)=O)CC3)c2c1`, the AC50 is, setting by setting: under setting [1], 24.3 µM [falling, partial curve, poor fit]; under setting [2], 19.3 µM [falling, partial curve].
In the case of `O=C(NCCCN1CCN(c2ccc(F)cc2)CC1)c1ccc2nc(Cc3ccccc3)oc2c1`, the AC50 under setting [1] was 21.7 µM [falling, partial curve] and the concentration at half-maximal activity (AC50) under setting [2] was 24.3 µM [falling, partial curve, poor fit].
In the case of `CCCN1CCN(CCCNC(=O)Cn2c(-c3cccs3)cc3cc(Cl)ccc32)CC1`, the concentration at half-maximal activity (AC50) is 21.7 µM [falling, partial curve] under setting [1] and 24.3 µM [falling, partial curve] under setting [2].
Turning to `O=C(CCS(=O)(=O)c1ccc(Br)s1)Nc1cc(C(F)(F)F)cc(C(F)(F)F)c1`, the AC50 is 24.3 µM [falling, partial curve] under setting [1] and 21.7 µM [falling, partial curve] under setting [2].
On to `Cc1ccc(C)c(NC(=O)CSc2c3c(nc4ccc(Cl)cc24)CCCC3)c1`, for which the half-maximal activity concentration (AC50) by setting is: under setting [1], 21.7 µM [falling, partial curve, poor fit]; under setting [2], 34.3 µM [falling, partial curve].
Consider `O=C(CSc1c2c(nc3ccc(Cl)cc13)CCCC2)N1CCN(c2cccc(Cl)c2)CC1`, for which the AC50 runs as follows: under setting [1], 13.7 µM [falling, full curve]; under setting [2], 21.7 µM [falling, partial curve].
`COc1ccc(NC(=O)c2c(NCc3ccc(C)o3)sc3c2CCCCC3)c(OC)c1`: the AC50 under setting [1] was 27.3 µM [falling, partial curve] and the AC50 under setting [2] was 24.3 µM [falling, partial curve].
`Cc1ccc(NC(=O)N2CCc3cc(S(=O)(=O)N4CCC(C)CC4)ccc32)cc1F`: the AC50 is 15.3 µM [falling, partial curve] under setting [1] and 13.7 µM [falling, full curve] under setting [2].
Take `COCCCn1c(=N)c(C(=O)NCc2ccco2)cc2c(=O)n3cccc(C)c3nc21`: the half-maximal activity concentration (AC50) runs as follows: under setting [1], 17.2 µM [falling, partial curve, poor fit]; under setting [2], 19.3 µM [falling, partial curve].
